Among the data in patent publication US11618753B2 (priority 2018, dated 2023) are IC50 values, retold here.

The subject of the test is MLKL phosphorylation, HT29-L23 human colorectal adenocarcinoma cells. Briefly: cells. To be noted: read-out: pMLKL HCS Cell Assay (IC50, uM).
As for `COc1ncc(-c2cc(OC)c3c(N)ncnn23)cc1C(=O)N[C@@H]1CN(C(=O)[C@@](C)(O)C(F)(F)F)C[C@@H]1F` [Example 1604, 5-{4-amino-5-methoxypyrrolo[2,1-f][1,2,4]triazin-7-yl}-N-[(3R,4S)-4-fluoro-1-[(2R)-3,3,3-trifluoro-2-hydroxy-2-methylpropanoyl]pyrrolidin-3-yl]-2-methoxypyridine-3-carboxamide], the IC50 stood at 0.0057 µM.
Turning to `COc1ncc(-c2cc(C(F)(F)F)c3c(N)ncnn23)cc1C(=O)N[C@@H]1CN(C(=O)c2cccc(F)c2)C[C@@H]1F` [Example 342, 5-[4-amino-5-(trifluoromethyl)pyrrolo[2,1-f][1,2,4]triazin-7-yl]-N-[(3R,4S)-4-fluoro-1-(3-fluorobenzoyl)pyrrolidin-3-yl]-2-methoxypyridine-3-carboxamide], the 50% inhibitory concentration (IC50) was 0.024 µM.
In the case of `COc1ncc(-c2cc(C(F)(F)F)c3c(N)ncnn23)cc1C(=O)Nc1ncc(Cc2ccccc2)s1` [Example 1686, 5-(4-amino-5-(trifluoromethyl)pyrrolo[2,1-f][1,2,4]triazin-7-yl)-N-(5-benzylthiazol-2-yl)-2-methoxynicotinamide] it was 0.015 µM; in that of `C[C@@](O)(C(=O)N1C[C@H](F)[C@H](NC(=O)c2cc(-c3cc(C(F)(F)F)c4c(N)ncnn34)ccc2CF)C1)C(F)(F)F` [Example 910, 5-[4-amino-5-(trifluoromethyl)pyrrolo[2,1-f][1,2,4]triazin-7-yl]-N-[(3R,4S)-4-fluoro-1-[(2R)-3,3,3-trifluoro-2-hydroxy-2-methylpropanoyl]pyrrolidin-3-yl]-2-(fluoromethyl)benzamide], 0.0035 µM; in that of `COc1ncc(-c2cc(C(F)(F)F)c3c(N)ncnn23)cc1C(=O)NC1CN(Cc2ccccc2C(F)(F)F)CC1F` (racemic) [Example 232, 5-[4-amino-5-(trifluoromethyl)pyrrolo[2,1-f][1,2,4]triazin-7-yl]-N-(4-fluoro-1-{[2-(trifluoromethyl)phenyl]methyl}pyrrolidin-3-yl)-2-methoxypyridine-3-carboxamide], 0.0062 µM.
In the case of `COc1ncc(-c2cc(C(F)(F)F)c3c(N)ncnn23)cc1C(=O)N[C@@H]1CN(C(=O)C2CC2(F)F)C[C@@H]1F` (stereo partly drawn) [Example 303, 5-[4-amino-5-(trifluoromethyl)pyrrolo[2,1-f][1,2,4]triazin-7-yl]-N-[(3R,4S)-1-(2,2-difluorocyclo-propanecarbonyl)-4-fluoro-pyrrolidin-3-yl]-2-methoxy-pyridine-3-carboxamide] it was 0.028 µM; in that of `CCOc1ccc(-c2cc(C(F)(F)F)c3c(N)ncnn23)cc1C(=O)N[C@@H]1CN(C(=O)C2CC(F)(F)C2)C[C@@H]1F` [Example 1103, 5-[4-amino-5-(trifluoromethyl)pyrrolo[2,1-f][1,2,4]triazin-7-yl]-N-[(3R,4S)-1-(3,3-difluorocyclobutanecarbonyl)-4-fluoropyrrolidin-3-yl]-2-ethoxybenzamide], 0.022 µM.
For `CCCC(N)(C(=O)N1CC(NC(=O)c2cc(-c3cc(C(F)(F)F)c4c(N)ncnn34)cnc2OC)[C@@H](F)C1)C(F)(F)F` (single isomer, unassigned) [Example 1545], the IC50 is 0.021 µM.
In the case of `Cc1cc(F)c(-c2cc(C(F)(F)F)c3c(N)ncnn23)cc1C(=O)N[C@@H]1CN(C(=O)CC(C)C(F)(F)F)C[C@@H]1F` (stereo partly drawn) [Example 801, 5-[4-amino-5-(trifluoromethyl)pyrrolo[2,1-f][1,2,4]triazin-7-yl]-4-fluoro-N-[(3R,4S)-4-fluoro-1-(4,4,4-trifluoro-3-methylbutanoyl)pyrrolidin-3-yl]-2-methylbenzamide] it was 0.0018 µM; in that of `Cc1ccc(-c2cc(C(F)(F)F)c3c(N)ncnn23)cc1C(=O)N[C@@H]1CN(C(=O)CC(C)C(F)(F)F)C[C@@H]1F` (stereo partly drawn) [Example 992, 5-[4-amino-5-(trifluoromethyl)pyrrolo[2,1-f][1,2,4]triazin-7-yl]-N-[(3R,4S)-4-fluoro-1-(4,4,4-trifluoro-3-methylbutanoyl)pyrrolidin-3-yl]-2-methylbenzamide], 0.002 µM.
As for `COc1cc(F)c(-c2cc(C(F)(F)F)c3c(N)ncnn23)cc1C(=O)N[C@@H]1CN(C(=O)CC(F)(F)F)C[C@@H]1F` [Example 874, 5-[4-amino-5-(trifluoromethyl)pyrrolo[2,1-f][1,2,4]triazin-7-yl]-4-fluoro-N-[(3R,4S)-4-fluoro-1-(3,3,3-trifluoropropanoyl)pyrrolidin-3-yl]-2-methoxybenzamide], the IC50 stood at 0.025 µM.
In the case of `Nc1ncnn2c(-c3ccc(OC(F)(F)F)c(C(=O)N[C@@H]4CN(C(=O)C5CCC(F)(F)C5)C[C@@H]4F)c3)cc(C(F)(F)F)c12` (stereo partly drawn) [Example 1055, 5-[4-amino-5-(trifluoromethyl)pyrrolo[2,1-f][1,2,4]triazin-7-yl]-N-[(3R,4S)-1-(3,3-difluorocyclopentanecarbonyl)-4-fluoropyrrolidin-3-yl]-2-(trifluoromethoxy)benzamide] it was 0.053 µM; in that of `Nc1ncnn2c(-c3ccc(OCC(F)(F)F)c(C(=O)N[C@@H]4CN(C(=O)CC(O)(C(F)(F)F)C(F)(F)F)C[C@@H]4F)c3)cc(C(F)(F)F)c12` [Example 1078, 5-[4-amino-5-(trifluoromethyl)pyrrolo[2,1-f][1,2,4]triazin-7-yl]-N-[(3R,4S)-4-fluoro-1-[4,4,4-trifluoro-3-hydroxy-3-(trifluoromethyl)butanoyl]pyrrolidin-3-yl]-2-(2,2,2-trifluoroethoxy)benzamide], 0.03 µM.
In the case of `CC(C)(F)C(=O)N1C[C@H](F)[C@H](NC(=O)c2cc(F)cc(-c3cc(C(F)(F)F)c4c(N)ncnn34)c2)C1` [Example 599, 3-[4-amino-5-(trifluoromethyl)pyrrolo[2,1-f][1,2,4]triazin-7-yl]-5-fluoro-N-[(3R,4S)-4-fluoro-1-(2-fluoro-2-methylpropanoyl)pyrrolidin-3-yl]benzamide] it was 0.029 µM; in that of `COc1ncc(-c2cc(CN3CCC(F)(F)CC3)c3c(N)ncnn23)cc1C(=O)N[C@@H]1CN(C(=O)OCC(C)(C)C(F)(F)F)C[C@@H]1F` [Example 1508, 3,3,3-trifluoro-2,2-dimethylpropyl (3R,4S)-3-(5-{4-amino-5-[(4,4-difluoropiperidin-1-yl)methyl]pyrrolo[2,1-f][1,2,4]triazin-7-yl}-2-methoxypyridine-3-amido)-4-fluoropyrrolidine-1-carboxylate], 0.008 µM.
Turning to `Nc1ncnn2c(-c3ccc(OC(F)F)c(C(=O)N[C@@H]4CN(C(=O)C5CCC(F)(F)C5)C[C@@H]4F)c3)cc(C(F)(F)F)c12` (stereo partly drawn) [Example 1094, 5-[4-amino-5-(trifluoromethyl)pyrrolo[2,1-f][1,2,4]triazin-7-yl]-N-[(3R,4S)-1-(3,3-difluorocyclopentanecarbonyl)-4-fluoropyrrolidin-3-yl]-2-(difluoromethoxy)benzamide], the IC50 was 0.021 µM.
With `Nc1ncnn2c(-c3cc(F)c(CF)c(C(=O)N[C@@H]4CN(C(=O)C5CC5(F)F)C[C@@H]4F)c3)cc(C(F)(F)F)c12` (stereo partly drawn) [Example 614, 5-[4-amino-5-(trifluoromethyl)pyrrolo[2,1-f][1,2,4]triazin-7-yl]-N-[(3R,4S)-1-(2,2-difluorocyclopropanecarbonyl)-4-fluoropyrrolidin-3-yl]-3-fluoro-2-(fluoromethyl)benzamide], the IC50 came to 0.0026 µM.
Consider `COc1ncc(-c2cc(CN3CCC(F)(F)CC3)c3c(N)ncnn23)cc1C(=O)NC1CN(C(=O)OC2CC(F)(F)C2(F)F)C[C@@H]1F` (stereo partly drawn) [Example 1537, 2,2,3,3-tetrafluorocyclobutyl (3R,4S)-3-(5-{4-amino-5-[(4,4-difluoropiperidin-1-yl)methyl]pyrrolo[2,1-f][1,2,4]triazin-7-yl}-2-methoxypyridine-3-amido)-4-fluoropyrrolidine-1-carboxylate], for which the IC50 came out at 0.129 µM.
`Cc1ncc(-c2cc(C(F)(F)F)c3c(N)ncnn23)cc1C(=O)N[C@@H]1CN(C(=O)C2CC(F)(F)C2)C[C@@H]1F` [Example 350, 5-[4-amino-5-(trifluoromethyl)pyrrolo[2,1-f][1,2,4]triazin-7-yl]-N-[(3R,4S)-1-(3,3-difluoro-cyclobutanecarbonyl)-4-fluoro-pyrrolidin-3-yl]-2-methyl-pyridine-3-carboxamide]: the concentration for half-maximal inhibition (IC50) stood at 0.014 µM.
Regarding `Cc1cc(F)c(-c2cc(C(F)(F)F)c3c(N)ncnn23)cc1C(=O)N[C@@H]1CN(C(=O)C2CCC(F)(F)C2)C[C@@H]1F` (stereo partly drawn) [Example 859, 5-[4-amino-5-(trifluoromethyl)pyrrolo[2,1-f][1,2,4]triazin-7-yl]-N-[(3R,4S)-1-(3,3-difluorocyclopentanecarbonyl)-4-fluoropyrrolidin-3-yl]-4-fluoro-2-methylbenzamide], the half-inhibitory concentration (IC50) was found to be 0.0035 µM.
Consider `Cc1cc(F)c(-c2cc(C(F)(F)F)c3c(N)ncnn23)cc1C(=O)N[C@@H]1CN(C(=O)c2cc(F)ccc2F)C[C@@H]1F` [Example 830, 5-[4-amino-5-(trifluoromethyl)pyrrolo[2,1-f][1,2,4]triazin-7-yl]-N-[(3R,4S)-1-(2,5-difluorobenzoyl)-4-fluoropyrrolidin-3-yl]-4-fluoro-2-methylbenzamide], for which the concentration for half-maximal inhibition (IC50) stood at 0.0038 µM.
As to `CCc1c(F)cc(-c2cc(C(F)(F)F)c3c(N)ncnn23)cc1C(=O)N[C@@H]1CN(C(=O)C(C)(C)O)C[C@@H]1F` [Example 647, 5-[4-amino-5-(trifluoromethyl)pyrrolo[2,1-f][1,2,4]triazin-7-yl]-2-ethyl-3-fluoro-N-[(3R,4S)-4-fluoro-1-(2-hydroxy-2-methylpropanoyl)pyrrolidin-3-yl]benzamide], the IC50 stood at 0.025 µM.
`Cc1cc(F)c(-c2cc(C(F)(F)F)c3c(N)ncnn23)cc1C(=O)N[C@@H]1CN(C(=O)C2CC(F)C2)C[C@@H]1F` (stereo partly drawn) [Example 411, 5-[4-amino-5-(trifluoromethyl)pyrrolo[2,1-f][1,2,4]triazin-7-yl]-4-fluoro-N-[(3R,4S)-4-fluoro-1-(3-fluorocyclobutanecarbonyl)pyrrolidin-3-yl]-2-methylbenzamide]: the IC50 is 0.0038 µM.
On to `COc1ncc(-c2cc(C(F)(F)F)c3c(N)ncnn23)cc1C(=O)N[C@@H]1CN(S(=O)(=O)C2=CCCCC2)C[C@@H]1F` [Example 1486, 5-[4-amino-5-(trifluoromethyl)pyrrolo[2,1-f][1,2,4]triazin-7-yl]-N-[(3R,4S)-1-(cyclohex-1-ene-1-sulfonyl)-4-fluoropyrrolidin-3-yl]-2-methoxypyridine-3-carboxamide], for which the IC50 was 0.0042 µM.

One may read the IC50 as the point on the concentration scale where inhibition reaches its midpoint.
